# Data reported in PubChem BioAssay AID1461 (National Center for Advancing Translational Sciences (NCATS), 2008).
# In all, about 220,000 compounds went through this assay and about 2,300 (1%) were called active. Inconclusive results, whose numbers are uncertain, are shown with a selection of clear calls. Calls follow the shape of the dose curve; as a rule, active = well fitted inhibition curve with a large enough effect; inconclusive = small, poorly fitted or top-dose-only effect, or effect the other way; inactive = no such curve, though single readings can be large or run the other way. Potencies of inconclusive entries are left out as doubtful fits.
# Target: Neuropeptide S receptor (Homo sapiens) (UniProt Q6W5P4)
# Sequence of UniProt Q6W5P4 (Q6W5P4 whole entry, looked up): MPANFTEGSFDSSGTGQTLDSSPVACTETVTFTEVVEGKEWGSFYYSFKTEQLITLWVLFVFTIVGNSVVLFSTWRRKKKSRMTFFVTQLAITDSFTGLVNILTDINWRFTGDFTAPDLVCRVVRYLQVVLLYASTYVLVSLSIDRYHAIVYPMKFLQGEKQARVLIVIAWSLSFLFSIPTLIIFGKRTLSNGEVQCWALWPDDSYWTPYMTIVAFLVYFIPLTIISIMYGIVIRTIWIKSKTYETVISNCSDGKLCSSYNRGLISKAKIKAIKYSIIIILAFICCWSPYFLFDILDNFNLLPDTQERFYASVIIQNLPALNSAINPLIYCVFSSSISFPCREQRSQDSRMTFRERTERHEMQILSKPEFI
# Test: qHTS Assay for Antagonists of the Neuropeptide S Receptor: cAMP Signal Transduction; also: nearly all actives have a fitted effect of over 50% in size
# Settings: CHO-NPSR cells, cAMP TR-FRET, antagonist mode; activity change, negative = inhibition: at 38.3 µM (top of the series) unless noted
# % is scaled to controls: 0 for no effect and ±100 for the full control effect; potency is read from the fitted curve at half-maximal effect; tags tell the direction and shape of the fitted curve.
Structure (SMILES),Potency,"activity change, negative = inhibition"
Cc1cccc(OCC(=O)N2CCC(N3CCCCCC3)CC2)c1,"inconclusive [inhibitor, single point]",
COc1ccc2c(c1)c(=O)c(C(=O)c1ccc(Cl)cc1)cn2CC(=O)Nc1ccc(F)cc1,"inconclusive [inhibitor, single point]",
COc1ccccc1CN(Cc1cc2cc3c(cc2[nH]c1=O)OCCO3)Cc1nnnn1Cc1ccco1,"inconclusive [inhibitor, partial curve]",
CC(C)(C)c1cc(C(=O)NNC(=O)Nc2cccc(Cl)c2)n(Cc2ccccc2)n1,"inconclusive [activator, single point]",
O=C(CSc1nc(-c2ccco2)cc(C(F)(F)F)n1)Nc1cccnc1,"inconclusive [inhibitor, single point]",
O=C1c2ccccc2C(Nc2ccc(S(=O)(=O)N3CCOCC3)cc2)N1Cc1ccco1 (centres undefined),,inactive: -8.05% [at 46.1 µM]
O=C(NNC(=S)Nc1ccc(F)cc1)c1cccc([N+](=O)[O-])c1,,inactive: -5.4%
COc1cc(/C=N/Nc2nc(C)cc(C)n2)ccc1OC(=O)c1ccco1,,inactive: -18.7%
Cc1ccc(/C=C/C(=O)Nc2cc(=O)n(C)c(=O)n2C)o1,,inactive: -14.1%
O=[N+]([O-])c1cccc(-c2n[nH]c(=S)n2Cc2ccccc2)c1,,inactive: 1.85%
OCCCCNCc1ccc(OCc2ccc(Cl)cc2Cl)cc1,"inconclusive [activator, single point]",
CC1=CC(C)(C)Nc2ccc(OS(=O)(=O)c3ccc(C)cc3)cc21,"inconclusive [inhibitor, single point]",
CN(Cc1ccccc1)C(=O)CSc1nc2ccccc2c(=O)n1Cc1ccco1,"inconclusive [inhibitor, single point]",
CC(=O)NN1C(=O)/C(=C/c2ccc(Br)o2)SC1=S,,inactive: -15.1% [at 46.1 µM]
O=C(c1ccc(N2CCCCCC2)c([N+](=O)[O-])c1)N1CCc2ccccc21,,inactive: -49.7%
O=C(N/N=C/c1ccco1)c1cc(-c2cccc(Br)c2)nc2ccccc12,,inactive: -16%
O=C1c2ccccc2C(=O)N1CCn1c(=O)oc2ccccc21,"inconclusive [inhibitor, single point]",
Cc1ccc(NC(=S)N/N=C/c2ccc(OCCC(C)C)cc2)c(C)c1,"inconclusive [inhibitor, single point]",
CCOC(=O)c1sc2nc(C)c([N+](=O)[O-])c(COC)c2c1N,"inconclusive [activator, single point]",
COc1ccc(C2Nc3ccccc3C(=O)N2c2ccc(C)cc2)cc1Cn1nc(C)c([N+](=O)[O-])c1C (centres undefined),"inconclusive [inhibitor, partial curve]",
O=C1NCCCC2c3cc(O)c4ccccc4c3OC12N1CCCCC1 (centres undefined),,inactive: -27.8% [at 46.1 µM]
CC1Cc2ccccc2N1c1ncnc(N)c1[N+](=O)[O-] (centres undefined),,inactive: 5.99%
CC1CCc2c(sc3ncnc(SCC(=O)c4ccccc4)c23)C1 (centres undefined),,inactive: -24.1%
CC(=O)C1=NN(c2ccc(Cl)cc2)C(c2ccc3c(c2)OCO3)N(C(C)=O)N1C (centres undefined),"inconclusive [activator, single point]",
COc1ccc2nc(C(F)(F)Cl)c(C#N)c(N)c2c1,"inconclusive [activator, single point]",

Structure (SMILES),Potency,"activity change, negative = inhibition"
CCOC(=O)C1CCCN(C(=O)c2ccc(Cl)c(S(=O)(=O)N3CCCCCC3)c2)C1 (centres undefined),,inactive: -7.6%
Cn1c(-c2cnn(-c3ccccc3)c2N)n[nH]c1=S,"inconclusive [activator, single point]",
CCC(=O)c1ccc(OCC(O)CN(CCc2ccccc2)Cc2ccccc2)cc1 (centres undefined),"inconclusive [inhibitor, single point]",
CN1CCN(CC(=O)N2CCn3c4c(c5cc(C6CCCCC6)ccc53)CCCC42)CC1 (centres undefined),"inconclusive [inhibitor, single point]",
NC(=O)c1ccccc1NC(=O)CCc1ccccc1,,inactive: 1.34% [at 46.1 µM]
O=C(Nc1ccccc1)C1=C[C@H](c2ccc3c(c2)OCO3)C[C@H](OCc2ccc(CO)cc2)O1,,inactive: 54%
CS(=O)(=O)N1CCN(Cc2ccccc2C(F)(F)F)CC1,"inconclusive [activator, partial curve]",
C/C(=N\OCc1nc2ccccc2c(=O)n1/N=C/c1cc(C)cc([N+](=O)[O-])c1O)c1ccccc1,"inconclusive [inhibitor, single point]",
CC1(C)OC(c2ccccc2)=C/C(=C/C=Nc2ccccc2)O1,"inconclusive [inhibitor, single point]",
Cn1c(=O)c2c(nc(SCc3cccnc3)n2Cc2ccc(F)cc2)n(C)c1=O,"inconclusive [inhibitor, partial curve, poor fit]",
CN=c1nc(-c2ccccc2)n(-c2ccccc2)s1,"inconclusive [inhibitor, partial curve]",
COc1ccc(Cl)cc1NC(=O)CSc1nnc(Cc2cccn2C)n1-c1ccc(F)cc1,,inactive: -51.8%
COC(=O)c1ccc(C2C(C(=O)OCC(C)C)=C(C)N=C3SCCC(=O)N32)cc1 (centres undefined),"inconclusive [inhibitor, partial curve]",
Clc1ccccc1C1CC(c2ccccc2)=Nc2ccccc2N1 (centres undefined),,inactive: 18.7% [at 7.67 µM]
Cc1ccc(N(C(C)C(=O)Nc2cc(Cl)ccc2Oc2ccccc2)S(C)(=O)=O)cc1 (centres undefined),"inconclusive [inhibitor, partial curve]",
CC(=O)c1ccc(Cc2ncc(C(F)(F)F)cc2Cl)s1,"inconclusive [inhibitor, single point]",
Cc1ccc(S(=O)(=O)N2CCOCC2)cc1NC(=O)c1cc2c(s1)CCC2,,inactive: -6.83% [at 46.1 µM]
O=C(Cc1ccccc1)Nc1cccc(N2C(=O)C=CC2=O)c1,"inconclusive [inhibitor, single point]",
Cc1cccc(Cc2nnc(CCC(=O)NCc3cn4ccccc4n3)o2)c1,,inactive: -29%
O=C(N=Nc1c(O)n(Cc2ccccc2)c2ccccc12)c1cc2ccccc2cc1O,"inconclusive [inhibitor, single point]",
O=C(NCCc1nc2ccccc2[nH]1)/C(=C/c1ccc2c(c1)OCO2)NC(=O)c1ccccc1,,inactive: 0.848%
O=C(/C=C/c1cn(-c2ccccc2)nc1-c1cccc(Cl)c1)N1CCN(c2ccccn2)CC1,,inactive: -52.6%
S=C(NCCc1ccccc1)Nc1ccc(Cl)cc1Cl,,inactive: -17.2% [at 46.1 µM]
CCCOC(=O)C1=C(C)N(C)C(=O)NC1c1cc2c(cc1[N+](=O)[O-])OCO2 (centres undefined),,inactive: -14%
Cc1cc(C)n(-c2ccc(C(=O)Nc3ccc4c(c3)OCO4)cc2)n1,,inactive: -19.9% [at 46.1 µM]

Structure (SMILES),Potency,"activity change, negative = inhibition"
CC1CCCCN1C(=O)CSc1nc(C2CC2)nc2c1cnn2-c1ccccc1 (centres undefined),"inconclusive [inhibitor, partial curve, poor fit]",
O=C(/C(=C/c1cccc(Cl)c1)c1nc2ccccc2[nH]1)c1ccccc1,active: 10 µM,
COc1ccccc1N(CC(=O)NCCC1=CCCCC1)S(=O)(=O)c1ccccc1,"inconclusive [inhibitor, single point]",
CCCC1S/C(=N/N=C/c2ccco2)NC1=O (centres undefined),,inactive: 11.3%
COc1ccc(S(=O)(=O)NCCN2CCNC2=O)cc1OC,,inactive: -9.07%
O=C(CSCc1cnn(-c2ccccc2)c1-n1cccc1)N1CCN(Cc2ccccc2)CC1,"inconclusive [inhibitor, single point]",
CN(CC(=O)Nc1ccccc1Sc1ccccc1)C1CCCCC1,"inconclusive [inhibitor, single point]",
O=C(c1cccs1)N1CCN(Cc2ccncc2)CC1,,inactive: -0.339% [at 46.1 µM]
CC(=O)n1cc(N(C(=O)CCl)c2ccc(Cl)cc2)c2ccccc21,"inconclusive [inhibitor, single point]",
CC(Cc1n[nH]c(=S)o1)c1ccccc1 (centres undefined),,inactive: 0.317%
Cc1ccccc1N=Cc1cc2c(cc1O)OC(N)=C(C#N)C2c1ccccc1 (centres undefined),"inconclusive [inhibitor, single point]",
CN(C)C(=O)CSc1nnc(-c2ccc(F)cc2)c2ccccc12,,inactive: -4.24% [at 7.67 µM]
CC(C)C(=O)N(Cc1ccccc1)c1ccccn1,,inactive: 6.11% [at 46.1 µM]
Nc1nnc(CSc2ccc(Cl)cc2)s1,"inconclusive [inhibitor, single point]",
CC1(C)Cc2c(c(=S)nc(-c3ccccc3)n2CCCN2CCOCC2)CO1,,inactive: 0.234% [at 46.1 µM]
CN1CCc2c(sc3c2C(=O)NC(c2ccc4c(c2)OCO4)N3)C1 (centres undefined),"inconclusive [inhibitor, partial curve, poor fit]",
CSc1ccc(/C=C/C(=O)c2ccc(NC(=O)Cc3ccccc3)cc2)cc1,"inconclusive [inhibitor, partial curve]",
CCOc1ccc(NC(=O)CSc2nc3cccnc3n2CCOC)cc1,,inactive: 9.56% [at 46.1 µM]
Cc1ccc(CSc2nncn2-c2ccccn2)cc1,"inconclusive [activator, full curve, poor fit]",
Cc1ccc2nc(SCC(=O)Nc3cc(C)on3)[nH]c2c1,"inconclusive [activator, single point]",
CC(C)CCn1c(CN2CCN(Cc3ccccc3)CC2)nc2c1c(=O)n(C)c(=O)n2C,"inconclusive [inhibitor, partial curve]",
CCN(CC(=O)Nc1ccc(N2CCOCC2)cc1)Cc1nc2ccccc2c(=O)[nH]1,,inactive: -6.08% [at 46.1 µM]
CCCc1nc2ccc(NC(=O)c3ccco3)cc2c(=O)n1Cc1ccc(Cl)cc1,"inconclusive [inhibitor, single point]",
COc1ccc(CCN2C(=O)/C(=C\c3ccco3)SC2=S)cc1OC,,inactive: -14.4%
